# Screen size: about 310,000 compounds; about 18,000 (5.8%) were called active. The shares of active, inactive and inconclusive entries below differ from those in the screen. The call rests on the fitted dose curve; in most records, active means well fitted inhibition curve with a large enough effect; inconclusive means small, poorly fitted or top-dose-only effect, or another doubt; inactive means no such curve, though single readings can be large or run the other way. No potency is given beside an inconclusive call; the fits are too rough.
# Experiment: Primary qHTS for delayed death inhibitors of the malarial parasite plastid, 48 hour incubation
# Settings: P. falciparum luciferase growth in erythrocytes; series mostly up to 28.7 µM
# In short: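 First compound was added to culture medium, then infected red cells at 0.1% parasitemia and 2% hematocrit (final). After incubation at 37 C under 5% CO2, luciferase detection reagent was dispensed and light output recorded.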
# Potency means the concentration at half of the fitted maximal effect; tags describe the fitted curve by direction and shape.
row,Compound,Potency
1,Cc1cccc(Nc2nc(N)nc(CN3CCN(c4ccc(F)cc4)CC3)n2)c1,"inconclusive [inhibitor, single point]"
2,CCCC(CCC)=NNc1ccc(S(=O)(=O)Nc2ccccc2OC)cc1[N+](=O)[O-],"inconclusive [inhibitor, partial curve, poor fit]"
3,COc1ccc(NC(C)C(=O)Nc2cc(C(F)(F)F)ccc2N2CCOCC2)c(OC)c1 (stereo not given),active: 0.117 µM
4,O=C(NCc1cccnc1)c1ccc(NC(=O)c2ccc(Br)cc2)cc1,"inconclusive [inhibitor, single point]"
5,CCn1c(SCC(=O)NCC2CCCO2)nnc1-c1ccccc1OC (stereo not given),"inconclusive [inhibitor, single point]"
6,COCCn1c(SCc2cccc([N+](=O)[O-])c2)nc2ccccc2c1=O,active: 9.28 µM
7,O=C1CN(C(=O)COc2ccc(Br)cc2Br)c2ccccc2N1,inactive
8,COc1ccc(/C(C)=N/N2C(=O)c3ccccc3NC2c2ccc(O)c(OC)c2)cc1 (stereo not given),inactive
9,N/C(=N\OC(=O)c1cccc(Br)c1)c1ccc([N+](=O)[O-])cc1,inactive
10,CC(C)(O)C#Cc1ccc(CN2CCCC(CNC(=O)c3ccco3)C2)cc1 (stereo not given),"inconclusive [inhibitor, partial curve, poor fit]"
11,COc1ccc(CNc2ccc(-c3ccccc3OC)nn2)cc1,inactive
12,CCN(CC)S(=O)(=O)c1ccc(OC)c(NC(=O)C2CC(=O)N(c3ccc(C)cc3)C2)c1 (stereo not given),"inconclusive [inhibitor, partial curve, poor fit]"
13,COc1cc(/C=N\Nc2ccc([N+](=O)[O-])cc2)ccc1OCC(=O)Nc1ccc(C)c(C)c1,"inconclusive [inhibitor, full curve, poor fit]"
14,COc1ccc(-c2noc(=O)n2CC(=O)N2CCC(Cc3ccccc3)CC2)cc1,"inconclusive [inhibitor, single point]"
15,COc1ccccc1C(=O)NC(CCSC)C(=O)OC(C)C(N)=O (stereo not given),inactive
16,COc1ccc(Cn2cccc(NC(=O)Nc3ccc(C#N)cc3)c2=O)cc1,"inconclusive [inhibitor, partial curve, poor fit]"
17,COc1ccccc1CNC(=S)NCc1ccc(Cl)cc1,"inconclusive [inhibitor, single point]"
18,O=c1c2ccccc2nc(SCc2cccc(F)c2)n1Cc1ccco1,"inconclusive [inhibitor, single point]"
19,Cc1ccc2nc(CSc3nc(C)cc(C)c3C#N)[nH]c2c1,inactive
20,CC(C)(C)C(=O)Nc1ccc(S(=O)(=O)N2CCC(c3nc4ccccc4[nH]3)CC2)cc1,active: 13.1 µM
21,Cc1ccc(Cc2c(C)nc3nc(SCC(=O)NCCCN4CCCCCC4)nn3c2C)cc1,"inconclusive [inhibitor, single point]"
22,COc1ccc(-c2noc(CCCC(=O)Nc3ccc(C(N)=O)cc3)n2)cc1,inactive
23,CCOC(=O)c1ncn2c1[C@@H]1CCNC1C(=O)c1cc(OC)ccc1-2 (stereo not given in full),inactive

row,Compound,Potency
1,O=S(=O)(c1ccc(Oc2ccc(Br)cc2F)nc1)N1CCCCC1,inactive
2,COc1ccccc1-n1c(SCC(=O)Nc2ccc3c(c2)OCO3)nc2c(c1=O)SCC2,"inconclusive [inhibitor, single point]"
3,CC12CCC(c3c(C(=O)N4CCOCC4)nn(-c4ccccc4)c31)C2(C)C (stereo not given),"inconclusive [inhibitor, partial curve, poor fit]"
4,CCCCN(C(=O)c1c(CC)noc1C)c1c(N)n(CC(C)C)c(=O)[nH]c1=O,"inconclusive [inhibitor, single point]"
5,COc1ccccc1CCNC(=O)c1ccccc1SCC(=O)N1CCCC1,"inconclusive [inhibitor, single point]"
6,CCn1c2c(c3cc(OCC(C)C)ccc31)CCCC2=O,"inconclusive [inhibitor, single point]"
7,CCCc1cc(=O)oc2cc(OCC(=O)NCCc3ccc(S(N)(=O)=O)cc3)ccc12,inactive
8,c1ccc(N(c2ccccc2)c2nc(-n3ccnc3)nc(-n3ccnc3)n2)cc1,"inconclusive [inhibitor, partial curve]"
9,C#CCN1C(=O)C(O)(CC(=O)/C=C/c2ccco2)c2ccccc21 (stereo not given),"inconclusive [inhibitor, partial curve, poor fit]"
10,COC(=O)CN(n1cnnc1)S(=O)(=O)c1ccccc1,inactive
11,COc1ccc(Nc2nc(N)nc(CN(C)C3CCCCC3)n2)cc1,"inconclusive [inhibitor, single point]"
12,O=C(NCCCN1CCOCC1)c1ccc(CS(=O)(=O)Cc2ccccc2Cl)o1,inactive
13,COc1ccc(CNc2nc3ccccc3n2Cc2ccc(C)cc2)cc1OC,"inconclusive [inhibitor, single point]"
14,CC(=O)Nc1ccc(NC(=O)C/C(C)=N/NC(=O)C(=O)N2CCCC2)cc1,inactive
15,N/C(=N\OC(=O)COc1ccc2ccccc2c1Br)c1cccnc1,inactive
16,CCCOc1ccc(C(=O)NC(=S)N2CCN(c3cc4c(cc3F)c(=O)c(C(=O)O)cn4CC)CC2)cc1,active: 14.7 µM
17,Cc1ccc(/C=N/Nc2ccc(F)cc2)s1,"inconclusive [inhibitor, single point]"
18,CCN1C(=O)[C@H]2[C@@H](c3ccc(-c4ccc(OC)cc4)cc3)N3CCCC[C@@]3(C(=O)OC)[C@H]2C1=O,active: 14.7 µM
19,CN(c1ccccc1)C(c1ccc(F)cc1)c1nnnn1C1CCCC1 (stereo not given),"inconclusive [inhibitor, partial curve]"
20,CC(Sc1nnc(C2CC2)n1C1CC1)C(=O)N(C)C1(C#N)CCCCC1 (stereo not given),"inconclusive [inhibitor, single point]"
21,COc1ccc(/C=N/Nc2ncccc2[N+](=O)[O-])c(OC)c1,inactive
22,COc1cc(NC(=O)CN(c2ccc(C)cc2)S(=O)(=O)c2c(C)nn(C)c2C)cc(OC)c1,"inconclusive [inhibitor, partial curve, poor fit]"
